In PMC12136788 one finds binding signal data, which are given here for 14 molecules.

The other results are listed elsewhere or left out.

T1: UNK ZnF1-3 (human, UniProt Q9C0B0 31-174)
T1 sequence: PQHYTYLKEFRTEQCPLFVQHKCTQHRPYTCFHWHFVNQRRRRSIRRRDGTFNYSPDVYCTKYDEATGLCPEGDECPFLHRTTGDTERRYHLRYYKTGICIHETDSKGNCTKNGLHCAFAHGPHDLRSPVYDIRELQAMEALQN

B1: chr6:86333760:86333761:-_ENSG00000135316_ENST00000355238|hu_mus|hu_hu_hu_mus_True|28_78 (ssRNA)
RNA: GGGAGUUCUACAGUCCGACGAUCUUCCUCAAGAAUCUGCUCCUUGGUUUUACUCUUAGGAAUAGAGCCCACAAAAAGCCUAUUGUUGGCAACUGAGAUGCAGACACCAAUAUGUUUCCCGGAACGAAUUUCAUGAUUAUUAUACAACAGAGGAUUGAGCAUCA
B2: chrX:100910778:100910779:-_ENSG00000184867_ENST00000356824|hu_hu|motif|central (ssRNA)
RNA: GGGAGUUCUACAGUCCGACGAUCAACACACACUCCAGAUGUAGUGCAUAAGUAAAAAAGGGAACCUUUAUUGAAUUCUCGGUAGUUAAACACUUCUGCUCUGAGAUUGUCAUAGAUAAUCUCAAAUAGAGUAAGGGCAUUAAUCAACAGAGGAUUGAGCAUCA
B3: chr2:48026839:48026840:+_ENSG00000116062_ENST00000540021|hu_hu|hu_hu_hu_mus_False|18_38 (ssRNA)
RNA: GGGAGUUCUACAGUCCGACGAUCAUAGUGAGCCACUAGCGUCCUAAAUCUGGAACAGUGGCGGUCAUCCGAAAACUGGCCGAUGAAAAACUUGCCCAGUGAAGUAUCCACAAAGCACACACCAUAUACACGAGUGUGACCAGACAACAGAGGAUUGAGCAUCA
B4: chr8:117878989:117878990:-_ENSG00000164754_ENST00000297338|hu_hu|hu_hu_hu_mus_True|48_58 (ssRNA)
RNA: GGGAGUUCUACAGUCCGACGAUCCCAGAGGCCCUCGUUUACUGAGGACAAAAUGUGCGUAGAACAUUUUUCUUAUUGGCUAUGAAAACAGAAGAAACCUGGAUCUCGGCGGGGAGCCGGGAGGGGUGGGUGGCCCGGGGAGGGCAACAGAGGAUUGAGCAUCA
B5: chr1:87369078:87369079:-_ENSG00000183291_ENST00000370554|hu_hu|FALSE|FALSE (ssRNA)
RNA: GGGAGUUCUACAGUCCGACGAUCCAGGUUGAACUGUCCGAGAAGAUCACAAGAGCUGCAAAGCAAGUUGCUAGAAAAGCCUAACUCUCUGCAUGCCUCCGAUGAAAACUCUGCCCCAAAAGCAGACACCGCUUGAAGCACAGUCAACAGAGGAUUGAGCAUCA
B6: chr19:29096225:29096226:-_ENSMUSG00000024782_ENSMUST00000025696|mus_hu|FALSE|FALSE (ssRNA)
RNA: GGGAGUUCUACAGUCCGACGAUCAGUACAUCAGCAACCAUCCUUUAGAUUCCAAUUUUUAAAUGGCUGCUCAGACGACACCAAUAGAGUUCUUUCUCCUUAAAAUAUGGUGGCAGUGAAUGCUAACAGGUAUCAAUUUCUUUGCAACAGAGGAUUGAGCAUCA
B7: 131237850_131237970_937_3pUTR_ENSMUSG00000025809_ENSMUST00000090006|mouse|control|control (ssRNA)
RNA: GGGAGUUCUACAGUCCGACGAUCACUCUCCUCUGUCAGUAAGACUAAGCACAUUUUUGUAGCUAAAUGGGCUGGUGCAGUUUUGUUCACUUGUACAAGGAUUUCUUAGCUUUGCUGGGGUUGUGCUAAUAUACGGCAUCACAGCAACAGAGGAUUGAGCAUCA
B8: chr7:65705844:65705845:+_ENSG00000169902_ENST00000304842|hu_mus|hu_hu_hu_mus_False|28_88 (ssRNA)
RNA: GGGAGUUCUACAGUCCGACGAUCAAACGGAUCUUUGUUACAUAAAUAAGGGGCUGGCUCCCCAUGUUUAACAAUGACCUCCAGAAGGAAGGCUUGCAUGGCAGAAUCCAGCACUUCAUCUGUGACACCCGCCUCAUCCAAGCGCAACAGAGGAUUGAGCAUCA
B9: 182598990_182599358_972_3pUTR_ENSMUSG00000058729_ENSMUST00000085803|mouse|control|control (ssRNA)
RNA: GGGAGUUCUACAGUCCGACGAUCGAUAAGGAAUUCCACUGGAAAGCCUCCUAACGUCUCCGUGUCAGAGCCAGAAACUUUACUUCUCCAAGGUGACUGCCCCAGUAAAGGAUCGCCAUCUGUAAUUGGUGACUGGAGAGGAGGCAACAGAGGAUUGAGCAUCA
B10: chr11:86991360:86991361:+_ENSMUSG00000018548_ENSMUST00000041282|mus_hu|motif|central (ssRNA)
RNA: GGGAGUUCUACAGUCCGACGAUCUUCUCGAAUGAUAUUUUUUGUAGGAUCAUUACAGGACUGGUGAACCAUCUCGGCACGAUAUUCAUAUUUAGAAGUUUCAGGCAAGCCAGCUGAGAGCUCCAGAAACACAGAUAAGUAGUACAACAGAGGAUUGAGCAUCA
B11: chrX:35777509:35777510:-_ENSMUSG00000016534_ENSMUST00000061755|mus_hu|FALSE|FALSE (ssRNA)
RNA: GGGAGUUCUACAGUCCGACGAUCCUUUCCUUGUGUCACAUUGAAAGGCUGAACCCUUAGAUCAAAGGUAUUUAUCUGAAAUGCUCCAGACACUGAAACAGUCUGCUCUUUGUUGCACAUAUAAGAACUUCCCAGGGGGGCAUCCAACAGAGGAUUGAGCAUCA
B12: 108390681_108390801_2218_CDS_ENSMUSG00000034557_ENSMUST00000106657|mouse|control|control (ssRNA)
RNA: GGGAGUUCUACAGUCCGACGAUCGUUGACUGCUGAGUUCUCCCCUAGCUUUGCUUUCCCAAGAACAUCAUUUUUGUUUUUACUAUUAUUUCCAUUGUUUGCAGGAAGGUCAUUUUGUAAAUGGUCUGAUAAUGGCUUUGGAAUCAACAGAGGAUUGAGCAUCA
B13: chr4:144460044:144460045:+_ENSG00000153147_ENST00000283131|hu_mus|hu_hu_hu_mus_False|1_68 (ssRNA)
RNA: GGGAGUUCUACAGUCCGACGAUCACGGUCCAUAGCCUGAAGAUCAACUUGCGGAUUCCAAUCUGAGUCAUACAAAAUGACUACAUCAGCAGUUGCAAGAUUGAUGCCCAGACCACCAGCACGUGUGCUUAGCAUAAAAACAAACAACAGAGGAUUGAGCAUCA
B14: chr1:80263381:80263382:-_ENSMUSG00000004364_ENSMUST00000163119|mus_mus|FALSE|FALSE (ssRNA)
RNA: GGGAGUUCUACAGUCCGACGAUCAAUUUUGCAUCUCUUUUGCCAUUUUUGCUACCCAACUUACACAAUGCGCAAAGUGCUAAUAAGCAACACUACAGAAACACAUUUACAUCAACACUGAAGACCUGGGGAAAUGAAAUCCAACAACAGAGGAUUGAGCAUCA

For the test, the target named is T1, UNK ZnF1-3. Put plainly: nsRBNS (natural sequence RNA bind-n-seq); RBNS binding buffer (assumed for nsRBNS): 25 mM Tris pH 7.5, 150 mM KCl, 3 mM MgCl2, 0.01% Triton X-100, 500 ug/ml BSA, 20 U/ml SUPERase-In, 4 C; UNK is unkempt and MSI1 is Musashi-1; names of the RNAs are library labels; protein concentration not given here; high values mean tight binding.
B1 gave a binding signal of 1.17 enrichment R.

As to B2, the binding signal turned out to be 0.732 enrichment R.

Molecule B3 returned a binding signal of 1.18 enrichment R.

Take B4: the binding signal came out at 1.86 enrichment R.

As to B5, the binding signal was found to be 0.799 enrichment R.

Regarding B6, the binding signal came to 1.35 enrichment R.

In turn, B7 gave a binding signal of 1.16 enrichment R.

B8 yielded a binding signal of 0.518 enrichment R.

The molecule B9 registered a binding signal of 0.782 enrichment R.

B10 showed a binding signal of 1.59 enrichment R.

In the case of B11, the binding signal was found to be 0.855 enrichment R.

Consider B12, for which the binding signal was found to be 0.555 enrichment R.

On to B13, for which the binding signal stood at 0.939 enrichment R.

B14 gave a binding signal of 1.43 enrichment R.
